This passage reports binding signal results from PMC12136788.

The chains are these.
T1: UNK ZnF1-3 (human, UniProt Q9C0B0 31-174)
T1 sequence: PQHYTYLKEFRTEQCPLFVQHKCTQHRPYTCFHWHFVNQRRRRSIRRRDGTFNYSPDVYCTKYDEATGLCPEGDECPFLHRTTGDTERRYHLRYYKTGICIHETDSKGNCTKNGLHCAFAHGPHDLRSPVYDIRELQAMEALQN

B1: chr3:9412954:9412955:+_ENSG00000134077_ENST00000452837|hu_mus|hu_hu_hu_mus_False|18_68 (ssRNA)
RNA: GGGAGUUCUACAGUCCGACGAUCGGUUGAUAUCUCUUCUUUGAUGGCUGGAUUUUCAUAAUAGUCCAAGAUAUGAGAAUCUGAAGUGCUGCUGGCAUGCUUUUUCUUACCAUCUUUCUGAUCGAUUUUGUCUCCUUGUCCACACAACAGAGGAUUGAGCAUCA
B2: chr7:140404665:140404666:+_ENSG00000090266_ENST00000247866|hu_hu|hu_hu_hu_mus_False|1_98 (ssRNA)
RNA: GGGAGUUCUACAGUCCGACGAUCUGCUCCUACUCGUAGGCUGAGUCUACAGUGUCAGUCCUCGUCAUCAGGAGGGAUUCCCAGUUCUUCAUCUGUCCACUGUGAAGGAUCUGGAUAUGAAAAGUGACCCAGCACAGCUUCUGACAACAGAGGAUUGAGCAUCA
B3: chr17:57761033:57761034:+_ENSG00000141367_ENST00000269122|hu_hu|motif|central (ssRNA)
RNA: GGGAGUUCUACAGUCCGACGAUCAUCCAACCGUGGAGACAGCACCAUCAGCAAAUCAUUUAACAACAGAGGCUUGAAUUCGGAGUAGAACUGUAUUGCUCUGUAGUAUAGUUCCACAUUGGCAACCUUGGUAAUGAUAUCUUUCAACAGAGGAUUGAGCAUCA
B4: chr6:99849430:99849431:-_ENSG00000132424_ENST00000438806|hu_mus|motif|central (ssRNA)
RNA: GGGAGUUCUACAGUCCGACGAUCUCUUUUCUUGUCAUUGACCGCAUCACGGUCGGCUUCACUUGCUUCUAGAAGUGAUAAACGGUUUUGCUCUCUGUGAAUAAAUUCAUUCAUCUCUUUUGUAACCCUUUCUGUUUGCUGCUUCAACAGAGGAUUGAGCAUCA
B5: 99061608_99061728_1756_CDS_ENSG00000152767_ENST00000319562|human|control|control (ssRNA)
RNA: GGGAGUUCUACAGUCCGACGAUCCAGCAGCGGGCUGAUCAAGGGAGAGGCCUGCUUGGUGUCGGGGCUCAGGUUGGGAGACAAGGUCACGUUGGCAGGGGCCACUCCCCCCUGCGAGUUCACAGACAGCUCGGAAAGGUGAGGCAACAGAGGAUUGAGCAUCA
B6: 42058404_42058524_8184_CDS_ENSG00000174197_ENST00000570161|human|control|control (ssRNA)
RNA: GGGAGUUCUACAGUCCGACGAUCAGAAAUCUUUUUAGGUAAGAACUCUUGUGCUUUCUGCAUAUUGGAAACGUCAACUAUUUGUGGAUAACCAGAAUCUUUGUUUGCCAGAAAAACCUGCGUUGGACCCAACGUCACUCUGCCCAACAGAGGAUUGAGCAUCA
B7: chr2:48782664:48782665:-_ENSMUSG00000026761_ENSMUST00000141441|mus_mus|motif|central (ssRNA)
RNA: GGGAGUUCUACAGUCCGACGAUCUCACUCUCUUUUCUAAGAGUUCCAAAAUAUCCAAUCUACAUGUAAGUCCAAUAACUGCGGCUGGUGUCUGUGCAGAUUGAGAAAUGUCAAAAAGAUUAUAAAGGAGUGUUUGAUUUUUCUCAACAGAGGAUUGAGCAUCA
B8: chr5:135101456:135101457:-_ENSMUSG00000040731_ENSMUST00000036125|mus_hu|motif|central (ssRNA)
RNA: GGGAGUUCUACAGUCCGACGAUCGCCCAACAGUGCACCAUCGUAUGUCAAGGCUUCCUUAAGGGAAUCCACUUCAUCGAAUUCGGCAUAGCAGAAUCCUUUAAAUUUAUCUGUGUCUUUGUCUCUGACUAGCCGUACACUCCUCAACAGAGGAUUGAGCAUCA
B9: chr1:35656411:35656412:-_ENSG00000116560_ENST00000357214|hu_mus|FALSE|FALSE (ssRNA)
RNA: GGGAGUUCUACAGUCCGACGAUCUGGCUUGGAAGCAAACUCAACAAUGCCUUUCCCUGUAGAUCUUCCGCGAUCAUCCACAAUUACAACAGCCCUUUCAAUAGGACCAAACUGGCUAAAGGCCUCUUCCAAAAGUUCGUUGGACAACAGAGGAUUGAGCAUCA
B10: chr17:24706804:24706805:+_ENSMUSG00000032855_ENSMUST00000035565|mus_mus|motif|central (ssRNA)
RNA: GGGAGUUCUACAGUCCGACGAUCGCAAUCUUGCUUGAGAAAAUCCACCUCAGGAGGGCAGGCAUCCUCGAAGGGAGCACGGAUAUUGCCCCCAAACCACUGAGCUGUGGCAGUGGCAUUAGCACCAGAAUCUACCUGAAGCACCAACAGAGGAUUGAGCAUCA
B11: chr18:48447474:48447475:+_ENSG00000082212_ENST00000321341|hu_mus|FALSE|FALSE (ssRNA)
RNA: GGGAGUUCUACAGUCCGACGAUCCCAGAUCUUUCUCUGCGCCUCCUCUUCUGAGAGACCACUUUCCACCAUUGAUAGAACUAUGAGAUUGGCAAUUCCAAGUGCAGCUUCUCCUGCUCCAAGAAAUAAGAUUUUGUGUUCUGACAACAGAGGAUUGAGCAUCA
B12: 64394397_64394517_860_CDS_ENSG00000118482_ENST00000393387|human|control|control (ssRNA)
RNA: GGGAGUUCUACAGUCCGACGAUCAUCAUUUUGUUCAUGUUCUUCUUUAUCUGAAAACUUAAACAAUGGACUACCAACAGGCUUGGCUUUACAUUCCAUCAAAGCUUCAUUUUUCUUUUCUCCAAUAGUAACACAAGUCUCUGACAACAGAGGAUUGAGCAUCA
B13: chr4:148551591:148551592:-_ENSMUSG00000063077_ENSMUST00000060537|mus_hu|mus_mus_mus_hu_False|28_48 (ssRNA)
RNA: GGGAGUUCUACAGUCCGACGAUCACCUGACAAAAUUAAAUAUCCCUGUAAAUUAGACAAUAAGCAGCAGGCAACAAAGUCUUUGCUUUGAAAUAUGUGCCAGGAAAAAUCAUGUUUUUUUUAGAUCUCAAGAGACAGUUCACACAACAGAGGAUUGAGCAUCA
B14: chr12:16048344:16048345:+_ENSG00000023734_ENST00000419869|hu_hu|hu_hu_hu_mus_True|78_78 (ssRNA)
RNA: GGGAGUUCUACAGUCCGACGAUCAGAUCGUCCAUAAGUAAUAACCAAAAUCUCUCCCUCAGGAAUAUACUCCAUGCUGCUAACAGACAUAUUAAAAUUCAGAGAUUUCACUUCUGUCAUUGUGGCAUGAUCCCAGAGCCGAACCAACAGAGGAUUGAGCAUCA

Some of the results follow.

In this test the target is T1, UNK ZnF1-3. The test is described as follows: nsRBNS (natural sequence RNA bind-n-seq); RBNS binding buffer (assumed for nsRBNS): 25 mM Tris pH 7.5, 150 mM KCl, 3 mM MgCl2, 0.01% Triton X-100, 500 ug/ml BSA, 20 U/ml SUPERase-In, 4 C; UNK is unkempt and MSI1 is Musashi-1; names of the RNAs are library labels; protein concentration not given here; high values mean tight binding.
In turn, B1 returned a binding signal of 0.506 enrichment R. For the molecule B2, the binding signal was 0.847 enrichment R. In the case of B3 it was 2.04 enrichment R. In the case of B4 it was 0.381 enrichment R; in that of B5, 1.2 enrichment R; in that of B6, 0.865 enrichment R. B7 came in with a binding signal of 1.18 enrichment R. In the case of B8 it was 1.1 enrichment R. In the case of B9 it was 1.07 enrichment R; in that of B10, 1.29 enrichment R. On to B11, for which the binding signal amounted to 0.835 enrichment R. For the molecule B12, the binding signal was 0.643 enrichment R. In the case of B13 it was 0.975 enrichment R; in that of B14, 1.23 enrichment R.
